Where two headings read alike, the source gives them in different places.

The values that follow come from patent US20240343803A1 (SHANDONG SIMCERE BIOPHARMACEUTICAL, published 2024).

In experiment [1] the target is T1, human PVRIG-mFc protein (Acro, PVG-H5253) (human, UniProt Q6DKI7 41-171, limits assumed).
T1 construct: bought reagent; also called PVRIG-ECD-mFc
T1 sequence (looked up): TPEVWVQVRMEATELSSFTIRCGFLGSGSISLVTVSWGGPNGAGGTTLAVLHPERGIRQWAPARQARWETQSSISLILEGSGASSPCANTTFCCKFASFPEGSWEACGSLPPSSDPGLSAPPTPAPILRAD
Kind of experiment: competition FACS; blocked: PVRIG-mFc binding to CHO-K1 CD112 cells.

Experiment [2] concerns the target T2, human PVRIG on FlpinCHO-PVRIG cells (human, UniProt Q6DKI7 41-326).
T2 construct: whole, on cells; also called FlpinCHO-hPVRIG; FlpinCHO-human PVRIG
T2 sequence (looked up): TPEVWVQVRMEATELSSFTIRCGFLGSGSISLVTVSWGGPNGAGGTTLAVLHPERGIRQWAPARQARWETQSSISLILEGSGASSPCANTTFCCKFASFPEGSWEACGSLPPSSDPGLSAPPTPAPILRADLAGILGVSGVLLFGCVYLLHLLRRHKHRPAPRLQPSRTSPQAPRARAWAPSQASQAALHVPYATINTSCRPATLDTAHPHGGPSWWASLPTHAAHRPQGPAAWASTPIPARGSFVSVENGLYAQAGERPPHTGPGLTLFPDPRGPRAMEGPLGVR
Description: FACS, FlpinCHO-hPVRIG cells. On the technique in general: Flow cytometry measures light scatter and fluorescence of single cells or particles in a stream.

Experiment [3] addresses T3, cynomolgus monkey PVRIG on FlpinCHO-cyno PVRIG cells (cynomolgus monkey, UniProt A0A2K5WVV8 41-322).
T3 construct: whole, on cells; also called FlpinCHO-cynomolgus monkey PVRIG
T3 sequence: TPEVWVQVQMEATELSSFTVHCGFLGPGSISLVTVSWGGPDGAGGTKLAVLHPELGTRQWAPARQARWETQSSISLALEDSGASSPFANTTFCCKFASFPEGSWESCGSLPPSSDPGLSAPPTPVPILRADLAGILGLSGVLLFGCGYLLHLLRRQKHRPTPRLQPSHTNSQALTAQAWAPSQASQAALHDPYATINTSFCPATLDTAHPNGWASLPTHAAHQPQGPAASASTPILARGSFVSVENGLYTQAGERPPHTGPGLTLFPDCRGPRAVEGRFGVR
Description: FACS, FlpinCHO cynomolgus monkey PVRIG cells.

The target in experiment [4] is T4, cynomolgus monkey TIGIT ECD-mFc (cynomolgus monkey).
T4 construct: also called cynomolgus monkey TIGIT protein
Description: ELISA, cynomolgus TIGIT ECD-mFc captured by anti-mouse IgG.

A further experiment addresses T5, hPVRIG (human, UniProt Q6DKI7 41-171, limits assumed).
T5 sequence (looked up): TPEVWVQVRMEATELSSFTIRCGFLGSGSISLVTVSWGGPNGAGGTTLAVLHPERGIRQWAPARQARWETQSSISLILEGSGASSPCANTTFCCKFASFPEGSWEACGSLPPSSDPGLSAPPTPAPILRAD
Description: SPR (BIAcore), antibody captured on Protein A, antigen as analyte. In general terms: In SPR one partner is held on a chip, and binding of the other changes the refractive index at the surface.

In a further experiment the target is cynoTIGIT (cynomolgus monkey, UniProt A0A7N9I9V4 89-209). Described as above.
Another experiment deals with T6, cynoPVRIG (cynomolgus monkey, UniProt A0A2K5WVV8 41-171).
T6 sequence: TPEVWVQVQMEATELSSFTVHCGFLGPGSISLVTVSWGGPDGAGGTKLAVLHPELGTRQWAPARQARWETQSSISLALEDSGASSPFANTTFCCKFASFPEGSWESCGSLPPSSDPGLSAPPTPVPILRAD
Described as above.

In experiment [5] the target is T7, human PVRIG (AcroBiosystems, Cat NO. PVG-H52H4) (human, UniProt Q6DKI7 41-171, limits assumed).
T7 construct: Bought protein with His tag; also called human PVRIG-his; human PVRIG protein
T7 sequence (looked up): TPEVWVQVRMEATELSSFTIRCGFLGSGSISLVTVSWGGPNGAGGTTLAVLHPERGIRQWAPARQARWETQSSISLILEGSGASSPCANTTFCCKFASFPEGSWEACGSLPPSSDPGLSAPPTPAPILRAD
Description: ELISA, coated human PVRIG. In general terms: ELISA stands for enzyme-linked immunosorbent assay.

Experiment [6] has as its target T8, human PVRIG-mFc protein (Acro, PVG-H5253) (human, UniProt Q6DKI7 41-171, limits assumed).
T8 construct: extracellular domain; Bought protein; also called PVRIG-ECD-mFc; not shown: mouse Fc tag of the bought protein
T8 sequence (looked up): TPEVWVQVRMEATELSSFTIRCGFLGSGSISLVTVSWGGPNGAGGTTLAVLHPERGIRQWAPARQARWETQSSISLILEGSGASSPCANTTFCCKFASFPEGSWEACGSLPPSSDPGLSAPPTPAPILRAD
Description: HTRF competition, PVRIG-mFc with Bio-CD112-His as competitor.

Experiment [7] deals with T9, cynomolgus monkey PVRIG (Novoprotein, Cat NO. C09B) (cynomolgus monkey, UniProt A0A2K5WVV8 41-171).
T9 construct: Bought protein; construct not described; also called cynomolgus monkey PVRIG protein
T9 sequence: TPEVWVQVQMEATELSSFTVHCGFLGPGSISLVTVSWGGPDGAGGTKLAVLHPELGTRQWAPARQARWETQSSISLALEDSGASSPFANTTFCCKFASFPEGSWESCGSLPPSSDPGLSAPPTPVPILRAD
Kind of experiment: ELISA, coated cynomolgus PVRIG.

For experiment [8], the target named is T7, human PVRIG (AcroBiosystems, Cat NO. …). Kind of experiment: ELISA, coated human PVRIG. This is another data set of the same source.
The target of experiment [9] is T9, cynomolgus monkey PVRIG (Novoprotein, …). Kind of experiment: ELISA, coated cynomolgus PVRIG. This is another data set of the same source.

cynoTIGIT, sequence (A0A7N9I9V4 entry or part of it): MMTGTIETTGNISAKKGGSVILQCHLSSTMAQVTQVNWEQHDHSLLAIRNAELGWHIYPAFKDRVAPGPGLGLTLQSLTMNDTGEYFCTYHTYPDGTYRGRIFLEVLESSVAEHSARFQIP

B1: LC-BsAb-009 (bispecific antibody, human IgG1, kappa)
heavy: EVQLVESGGGLVQPGGSLRLSCAASGRTFDRHTMSWFRQAPGKEREFVATASRIPGDTYYVDSVKGRFTISRDNAKNSLYLQMNSLRAEDTAVYYCAATSAYCSEVDCYEKGSWYDNWGQGTMVTVSSGGGGSGGGGSGGGGSGGGGSEVQLQESGPGLVKPSETLSLTCAVSGYSITSDSWNWIRQPPGKKLEYIGYISYSGNTYYNPSLKSRVTISRDTSKNQFSLKLSSVTAADTAVYYCARLDFSNYGGAVDYWGQGTTVTVSS[skipping human IgG1 constant region]
light: DIVMTQSPDSLAVSLGERATINCKASQNVRTAVAWYQQKPGQSPKLMIYSASYRYTGVPDRFSGSGSGTDFTLTISSLQAEDVAVYYCQQYYTTPWTFGGGTKVEIKRTVAAPSVFIFPPSDEQLKSGTASVVCLLNNFYPREAKVQWKVDNALQSGNSQESVTEQDSKDSTYSLSSTLTLSKADYEKHKVYACEVTHQGLSSPVTKSFNRGEC
notes: HC: PVRIG-A105-H1 + (G4S)4 linker + TIGIT-002-H4L3 VH + constant; LC: TIGIT-002-H4L3 VL + kappa; also called anti-PVRIGxTIGIT humanized bispecific antibody
The EC50 (read off the curve) is the midpoint of the concentration-response curve. On to B1, for which the “IC50 (read off the curve)” value in experiment [1] is ~0.9 nM. The “EC50 (read off the curve)” value is ~0.6 nM in [2] and ~0.5 nM in [3].

B2: LC-BsAb-002 (bispecific antibody, human IgG1, kappa)
heavy: EVQLVESGGGLVQPGGSLRLSCAASGFTFSYYDMSWVRQAPGKGLEWVSTINSDGGRTSYVDSVKGRFTISRDNSKNTLYLQMNSLRAEDTAVYYCVEGDPHNFGLESLSLRDFGSWGQGTMVTVSSGGGGSGGGGSGGGGSGGGGSEVQLQESGPGLVKPSETLSLTCAVSGYSITSDSWNWIRQPPGKKLEYIGYISYSGNTYYNPSLKSRVTISRDTSKNQFSLKLSSVTAADTAVYYCARLDFSNYGGAVDYWGQGTTVTVSS[skipping human IgG1 constant region]
light: DIVMTQSPDSLAVSLGERATINCKASQNVRTAVAWYQQKPGQSPKLMIYSASYRYTGVPDRFSGSGSGTDFTLTISSLQAEDVAVYYCQQYYTTPWTFGGGTKVEIKRTVAAPSVFIFPPSDEQLKSGTASVVCLLNNFYPREAKVQWKVDNALQSGNSQESVTEQDSKDSTYSLSSTLTLSKADYEKHKVYACEVTHQGLSSPVTKSFNRGEC
notes: Heavy chain fusion: PVRIG-A50-H1b - (G4S)4 linker - TIGIT-002-H4L3 VH - human IgG1 constant region; also called anti-PVRIGxTIGIT humanized bispecific antibody
As a reminder, the EC50 is the concentration needed to bring the measured effect to its halfway point. A word on the Kd: it is a measure of binding affinity in units of concentration. Usually koff stands for a measure of how fast the partners let go of each other. The kon is a measure of how fast the partners come together. By IC50 is commonly meant the point on the concentration scale where inhibition reaches its midpoint. Consider B2, for which the EC50 amounted to 0.0554 nM in experiment [4], 0.574 nM in experiment [5] and 0.044 nM in experiment [7]. For the same molecule, the results for the Kd with hPVRIG, with cynoTIGIT and with cynoPVRIG were 0.19 nM, 13.1 nM and 3.66 nM, respectively. Besides, the results for the koff with hPVRIG, with cynoTIGIT and with cynoPVRIG were 5.87e-05 s⁻¹, 0.00643 s⁻¹ and 0.000131 s⁻¹, respectively. Further, the on-rate (kon) was 309000 M⁻¹ s⁻¹ with hPVRIG, 492000 M⁻¹ s⁻¹ with cynoTIGIT and 35700 M⁻¹ s⁻¹ with cynoPVRIG. Besides, the “% relative activity PVRIG-A50-H1b/tested antibody” value is 66.1% in [5], 186% in experiment [6] and 86.4% in experiment [7]. In addition, the IC50 in experiment [6] stood at 0.11 nM.

B3: LC-BsAb-009 (bispecific antibody, human IgG1, kappa)
heavy: EVQLVESGGGLVQPGGSLRLSCAASGRTFDRHTMSWFRQAPGKEREFVATASRIPGDTYYVDSVKGRFTISRDNAKNSLYLQMNSLRAEDTAVYYCAATSAYCSEVDCYEKGSWYDNWGQGTMVTVSSGGGGSGGGGSGGGGSGGGGSEVQLQESGPGLVKPSETLSLTCAVSGYSITSDSWNWIRQPPGKKLEYIGYISYSGNTYYNPSLKSRVTISRDTSKNQFSLKLSSVTAADTAVYYCARLDFSNYGGAVDYWGQGTTVTVSS[skipping human IgG1 constant region]
light: DIVMTQSPDSLAVSLGERATINCKASQNVRTAVAWYQQKPGQSPKLMIYSASYRYTGVPDRFSGSGSGTDFTLTISSLQAEDVAVYYCQQYYTTPWTFGGGTKVEIKRTVAAPSVFIFPPSDEQLKSGTASVVCLLNNFYPREAKVQWKVDNALQSGNSQESVTEQDSKDSTYSLSSTLTLSKADYEKHKVYACEVTHQGLSSPVTKSFNRGEC
notes: Heavy chain fusion: PVRIG-A105-H1 - (G4S)4 linker - TIGIT-002-H4L3 VH - human IgG1 constant region; also called anti-PVRIGxTIGIT humanized bispecific antibody
For the molecule B3, the EC50 came out at 0.0607 nM in [8], 0.0418 nM in experiment [4] and 0.0256 nM in experiment [9]. Further, the IC50 in [6] turned out to be 0.196 nM.

B4: LC-BsAb-002 (bispecific antibody, human IgG1, kappa)
heavy: EVQLVESGGGLVQPGGSLRLSCAASGFTFSYYDMSWVRQAPGKGLEWVSTINSDGGRTSYVDSVKGRFTISRDNSKNTLYLQMNSLRAEDTAVYYCVEGDPHNFGLESLSLRDFGSWGQGTMVTVSSGGGGSGGGGSGGGGSGGGGSEVQLQESGPGLVKPSETLSLTCAVSGYSITSDSWNWIRQPPGKKLEYIGYISYSGNTYYNPSLKSRVTISRDTSKNQFSLKLSSVTAADTAVYYCARLDFSNYGGAVDYWGQGTTVTVSS[skipping human IgG1 constant region]
light: DIVMTQSPDSLAVSLGERATINCKASQNVRTAVAWYQQKPGQSPKLMIYSASYRYTGVPDRFSGSGSGTDFTLTISSLQAEDVAVYYCQQYYTTPWTFGGGTKVEIKRTVAAPSVFIFPPSDEQLKSGTASVVCLLNNFYPREAKVQWKVDNALQSGNSQESVTEQDSKDSTYSLSSTLTLSKADYEKHKVYACEVTHQGLSSPVTKSFNRGEC
notes: HC: PVRIG-A50-H1b + (G4S)4 linker + TIGIT-002-H4L3 VH + human IgG1 constant; LC: TIGIT-002-H4L3 VL + kappa; also called anti-PVRIGxTIGIT humanized bispecific antibody
Take B4: the “IC50 (read off the curve)” value in [1] was ~0.9 nM.
